Assay results from the RNAGym collection of RNA variant scans (doi:10.7554/elife.90254).
The source gives no read counts; variants with many changes may rest on few reads.

B1: LINE1-full (parent)
chain: UACGUAGGUGGUUUUCCCCUGAUAGUGCUAAGGGGGCCUGGAAGUUUGGACUGGGCAGAGCUCAACACAGCGUGGCAAAGUGGCUGUGGCUAGACUGCCUCUCUGGAUUCCUCGUCACUCAGCAGGGCAUCUCUGAGAGAAAUGCC

Variants of: B1
Test: self-cleavage, relative activity (ratio to wild type); higher = more cleavage; in vitro, sequencing; the parent is a self-cleaving ribozyme

| Variant | self-cleavage |
| --- | --- |
| U46C G49A A67G G72C U109C | 0.09 |
| U13C U100C U134C | 0.84 |
| G32A A42U C68U U87C G105U | 0.03 |
| U12C A43G U47G | 1.57 |
| A6U U39C U52C | 0 |
| A43G A65G U96A | 0.08 |
| U47A U52A U87A | 0.09 |
| A57U A64G U108A | 0.07 |
| G10U U15A U62A A79G U109C A124G | 0.54 |
| A22G A136U A140G | 1.25 |
| U20C U46C A78G | 1.11 |
| U14C A129G A140G | 1.02 |
| A78U U91C A94U A107G | 0.11 |
| U9A U102C U115C A140G | 1.08 |
| U96A U102C U134C A142C | 0 |
| U1A U14C U47C | 1.07 |
| U13A U14C A79G U119A | 0.62 |
| U1C G34A A57G A65U U132A A142U | 0.2 |
| G11A C95U A129G A138G | 0.1 |
| U5C U15C A77G U112C A142G | 1.69 |
| A43G G83A U87C U102A C113U | 0.05 |
| G7A U46A U73A | 0.49 |
| A22G G33A U39A A59G U143A | 0.1 |
| A2G U12G U87A U132C | 0.39 |

| Variant | self-cleavage |
| --- | --- |
| U20A C38A A64G | 0.19 |
| U23C G75A G89U U100A U115A | 0.05 |
| U26C A69U U143A | 0 |
| U15C A30U U115A | 0.9 |
| U47A U62C A69G | 0.02 |
| U15C U87C A107G A129U U134A | 0 |
| U15C U46A A78U | 2.17 |
| U12C U47G A69G U104A | 0 |
| C17A G32A G72A U143C | 0.91 |
| U12C U39A A67G G106U | 0.76 |
| U15C U87A A140G A142G | 0.19 |
| U9C G33C A57U U112C U119C | 0.16 |
| G21U G82U U104A U132C | 1.16 |
| G83C U104C A140G | 1.93 |
| A57G A65G A141G | 0 |
| A24C C128U U132C | 1.5 |
| U96A A121C U130C C131U | 0.09 |
| U15C A31U A57G | 0 |
| C116A A117G A121G | 1.04 |
| A6G A57U U130C | 0 |
| U29G G33U G48A A69U U100C A140G | 0.1 |
| U13C U119C A129U U143A | 2.47 |
| G10A U15C U62C | 0.12 |
| U12A A59U C76U A117G U119C | 1.56 |

| Variant | self-cleavage |
| --- | --- |
| U1C U52A U85C | 0.23 |
| A42G U81C U87A U115A | 0.28 |
| G11U U13C G54A U62C G82A A136G | 0.03 |
| U46C U85G U100C | 0.49 |
| A50G A77U A78G A79G | 0.77 |
| G10C A50G U87C | 0 |
| U15C U29C A92G U100A U112C | 0 |
| A30C U73A A121G | 1.84 |
| A65G U73G U85C A117U | 0 |
| G7U U47C U62C | 0.38 |
| A6G U9A U12C U62C | 0.19 |
| A30G U47C G97A | 0.73 |
| U20C A107G U109A | 1.23 |
| U12C A57G A107U | 0.85 |
| U9C U45C A141G | 0.66 |
| U15C U47C G72A A140G | 1.15 |
| U52C A65U A77G A138G | 0 |
| C19U A30C U100A A142G | 0.64 |
| U47A U62C A69U U85C | 0 |
| U9A A43G U47A A141G | 1.13 |
| U62C U87A A136G | 0.02 |
| G8A G55U G125A A140G U143C | 0.33 |
| U12C U73C A138C | 2.3 |
| A31G U108C C111U | 0 |

| Variant | self-cleavage |
| --- | --- |
| A57G A59U U62C U87C | 0 |
| G8A U15C U87A U91C | 0 |
| U45A A57G U119C U132A A141U | 0 |
| U39A A43U U100C G126A | 1.74 |
| U73C U112C A141G | 2.21 |
| A69G U112A A136G | 0.46 |
| U14C A57G A92U | 0.27 |
| G40U A42G A67C | 0 |
| U20C A31U A69G A92U | 0 |
| C28U U47C A57U A65G A129U | 0.09 |
| U39A A50U A92U A129G | 0.66 |
| U14C U15C U62C | 0.21 |
| U15A A129U U132C | 0.69 |
| C19G U108C A121G | 1.23 |
| A24U A57U U87A | 0.06 |
| U29C A67U A107G | 0.38 |
| A43G U73A G80A A92G | 0.08 |
| U15C U45C U100A U112C | 1.24 |
| A77U U112C A124G | 0.67 |
| U52A U112C U134C | 0.79 |
| U13A A77U U85C | 0.11 |
| U20C A24U U26C A31U C38A U96A A142G | 0.17 |
| U12G U52G A92G | 0 |
| U13C A92G U132A | 0.05 |

| Variant | self-cleavage |
| --- | --- |
| A30G U52C A67U U85A A124G | 0 |
| A24G A43C A65U U100A A140G A142G | 0.15 |
| U1C U13C U73C | 0 |
| A31G G60U A65G | 0.06 |
| G10A U115A G135U | 1.41 |
| A69U U73A A140G | 0 |
| A57G U62A A117G | 0 |
| C19U U47C A142C | 1.53 |
| A22G U26C G40A A43G A64G C110U | 0.45 |
| U20A A24G A77U A107G | 0.92 |
| A42U U73C A107G A124G A140G | 0 |
| G4A A50G G53A A65G U81A U100C | 0 |
| A31U A57G U73G U87C A136G | 0.51 |
| U52A A57G G125U | 0.44 |
| U14C A59U C84U | 0.17 |
| U47A A129U A136G | 1.53 |
| G40A U47A A77U | 0.95 |
| A57G G127A A138G | 1.16 |
| A24G U87A U132C | 0.07 |
| A2G G4A U47G C71U | 0.7 |
| U1A A67G U119C | 1.53 |
| U62A U91C G127U | 0.05 |
| G127A U130C U134A | 0.98 |
| U62C A78G G114A | 0.02 |

| Variant | self-cleavage |
| --- | --- |
| U13C U26C A121U | 1.12 |
| U85C C95A A129C | 0.04 |
| U9C U15A A79G U100C A138G | 0 |
| A59G G72U U85C A129G | 0.11 |
| U39C A78G A142G | 0.99 |
| G74U A140G U143C | 0.63 |
| U20C U62C A67G | 0.41 |
| C3U U29C U112C U130C A136G | 1.84 |
| U14C C19U U52G | 0.86 |
| U14A A69U A94G A129G A140G | 0.07 |
| A31U U46C U115C A129G | 2.04 |
| A43U U85C U115C | 0.24 |
| U62C C95U U119C | 0.03 |
| A22G A77G U91C | 0 |
| U46C U73A C84U U132C | 0.19 |
| U26A A65G U115A | 0.04 |
| A2U U23C C123A A138G | 0.8 |
| C19U A78G A79U U109A | 0.55 |
| A31C A42G G53A A57G A107G | 0.7 |
| U23A A42U A94G A136C | 0.11 |
| U20C G25A U134C | 0.6 |
| G82A A141G A142G | 1.31 |
| G4A U14A C63U U132C A140G | 0.29 |
| U87A U115A A129U | 0.03 |

| Variant | self-cleavage |
| --- | --- |
| A57G G70A U108C | 0.13 |
| A69U U108A A129G | 0.04 |
| G40A C56U A129G | 0.08 |
| A92G U100A A136C A138G | 0 |
| G8A U23A U87A | 0.05 |
| U9C A24G A42G U143C | 1.23 |
| U26C U45C U81C | 0 |
| U15C C56U U96C U102C U115C | 0.08 |
| C16U A22G C90U A140U | 0.06 |
| A94G A121U U130A | 0.13 |
| G48A G53A A64G A67G U102C A124G U132C | 0 |
| U26C A64G G105U G127U | 0.68 |
| U26C C37G U119C G122A A124G | 0.92 |
| U85C U96C U100C A129G C133A | 1.53 |
| U9C A31G G97A | 0.42 |
| G32A A57G A140G | 0.57 |
| A6G U45C U134G | 0.51 |
| U15A A57G U115A A129U | 0.3 |
| U5C U15C U20C G54U G74A U96C | 0.19 |
| U12C U108A C123U | 1.65 |
| A24U G34A A57C A117U | 0.09 |
| U26A A67U U91C U102A A142G | 0.05 |
| U47A A64C A65G A79G A136G | 0.31 |
